From PMC4242493 come the findings set out here.

The other results are listed elsewhere or left out. The list includes weakly bound sequences.

For the experiment, the target named is MaxL homodimer (UniProt P61244). As to the kind of experiment: universal protein-binding microarray (PBM). As to conditions: PBS-based mixture, 10 nM His-tagged protein dimer, 2% milk, 200 ng/uL BSA, 50 ng/uL salmon testes DNA, 0.02% TX-100; detection with Alexa 488 anti-His …; high values mean tight binding; most listed sequences are background and not binding sites; double strand, one strand shown.
UniProt P61244, sequence (P61244 whole entry): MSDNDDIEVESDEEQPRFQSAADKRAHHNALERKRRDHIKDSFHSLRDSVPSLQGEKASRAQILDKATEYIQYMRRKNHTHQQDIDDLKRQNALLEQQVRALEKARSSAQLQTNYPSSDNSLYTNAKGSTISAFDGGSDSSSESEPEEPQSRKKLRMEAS
For the sequence ATGCCGCC, the binding signal (normalized occupancy) is 0.0781. Consider CTGTACAA, for which the binding signal (normalized occupancy) is 0.0803. To CGATCTCA belongs 0.0761.

For the sequence ATTACGCC, the binding signal (normalized occupancy) is 0.0746.

On to TAGCGAAA, for which the binding signal (normalized occupancy) was 0.0727.

Regarding CTGAGGTC, the binding signal (normalized occupancy) came out at 0.0719. To CCGCCGCA belongs 0.0717; to CCCTTTTC, 0.072. To AGCTCAAA belongs 0.0648; to ACCTGGCA, 0.0804. Take CCGGCCCC: the binding signal (normalized occupancy) was 0.0685. As to AAGTCATG, the binding signal (normalized occupancy) turned out to be 0.0872. The value for GCCCAGAC was 0.0742.

On to ACTGTTGA, for which the binding signal (normalized occupancy) was found to be 0.0804.

As to GAGTGAAA, the binding signal (normalized occupancy) came to 0.0757. For CATCATAA, the binding signal (normalized occupancy) worked out at 0.0773. To CAAGATTC belongs 0.0813.

For the sequence CATACGGG, the binding signal (normalized occupancy) is 0.0812. For the sequence TGAATTCA, the binding signal (normalized occupancy) turned out to be 0.0793. For AATAACCT, the binding signal (normalized occupancy) was 0.0832.

For the sequence ATGTACCC, the binding signal (normalized occupancy) was determined as 0.0868. To CTTGCATA belongs 0.0777.

GGCGGTTA: the binding signal (normalized occupancy) worked out at 0.0716. The value for AGACGCCA was 0.0714; that for GTAGCCAA was 0.0754.

As for TGCCCGAA, the binding signal (normalized occupancy) came out at 0.0729.

As for CCGCATAA, the binding signal (normalized occupancy) turned out to be 0.0821. To AGATTTAA belongs 0.0716; to AGCGAGGC, 0.0726.

Turning to CGCTGATC, the binding signal (normalized occupancy) was 0.0724. AGGTCCAT: the binding signal (normalized occupancy) worked out at 0.0756. To CCGCATCG belongs 0.0662; to CTAGTGAA, 0.068; to CCCCGCAC, 0.0833.

In the case of ACTAGGCT, the binding signal (normalized occupancy) amounted to 0.0695. GTCTCCGA: the binding signal (normalized occupancy) turned out to be 0.0689. On to CCCCCGGC, for which the binding signal (normalized occupancy) is 0.0701. For GTAAGAAC, the binding signal (normalized occupancy) turned out to be 0.0735. In the case of CCCGCAGG, the binding signal (normalized occupancy) is 0.0702. For the sequence ATCCCCAT, the binding signal (normalized occupancy) amounted to 0.088. To AGTTGCAG belongs 0.0758; to CGACCCGA, 0.0692. For the sequence CAAGAGCA, the binding signal (normalized occupancy) was determined as 0.076. In the case of GCTCCCAC, the binding signal (normalized occupancy) was determined as 0.075. Take AAAGAGCC: the binding signal (normalized occupancy) turned out to be 0.0704.

As for AAGAAATT, the binding signal (normalized occupancy) came out at 0.068. The value for AATCCGGT was 0.0698. For CATTTGCA, the binding signal (normalized occupancy) came to 0.0841. The value for ACTGCGTG was 0.0884. For AAGGGAGA, the binding signal (normalized occupancy) is 0.0736. To CGTCTGAC belongs 0.0727; to CCATCGGA, 0.0686; to AGTTTAAG, 0.0693. For the sequence GGCGACTA, the binding signal (normalized occupancy) is 0.071. To CATTGAGC belongs 0.0699; to AATCGAGC, 0.0727; to AGATCTGG, 0.0786. ACCGGCCG: the binding signal (normalized occupancy) turned out to be 0.065. In the case of ATCGACAG, the binding signal (normalized occupancy) amounted to 0.0749.

As to AGGGAACG, the binding signal (normalized occupancy) turned out to be 0.0845.

Take GCCGCAGA: the binding signal (normalized occupancy) was determined as 0.0731.

For the sequence ATTCCGGC, the binding signal (normalized occupancy) was determined as 0.0696. To ATCCTACC belongs 0.0757; to GTAGACAC, 0.0787; to GCTCGAAA, 0.0672. On to GACAGTAC, for which the binding signal (normalized occupancy) came out at 0.0777. The value for AGCCCACT was 0.0727. As for CCACGCTC, the binding signal (normalized occupancy) turned out to be 0.0965. Take ACTTGTTA: the binding signal (normalized occupancy) was found to be 0.075. To TATGTACA belongs 0.0862; to AAGACAAT, 0.0793. Take AGGAAATA: the binding signal (normalized occupancy) is 0.0789. To AGGAATGA belongs 0.0735; to ACAAGAAG, 0.0783; to AGTACACA, 0.0858. To CCCTGAGA belongs 0.0713. The value for AACGCGTC was 0.0723; that for GGTAGCAC was 0.0806. Turning to AGCCCCTA, the binding signal (normalized occupancy) came to 0.0739.

For the sequence GCTATGCC, the binding signal (normalized occupancy) was 0.0712.

On to AACTGATG, for which the binding signal (normalized occupancy) was 0.0749. To GCTCGAAC belongs 0.0717. The value for ACTACGCA was 0.0759; that for CGTCCTAA was 0.073; that for GCGGAACC was 0.0647. The value for AGCGCTCG was 0.0681; that for AAGACCCC was 0.0752. On to ACTCAATG, for which the binding signal (normalized occupancy) is 0.0859. Turning to ACTCTATA, the binding signal (normalized occupancy) came to 0.0759. Consider GCAATCGC, for which the binding signal (normalized occupancy) came to 0.0715. As for GTCAAGTA, the binding signal (normalized occupancy) was determined as 0.0747. To CAATCAAA belongs 0.075.

Turning to ATAACCGC, the binding signal (normalized occupancy) was 0.0792. For GAGTTGCA, the binding signal (normalized occupancy) came to 0.0724. The value for CGCGACCA was 0.075; that for CGTTACAC was 0.0819. To AACTCTAA belongs 0.0725. To ATTGGCTG belongs 0.0741; to AGCCTCAT, 0.0827.

On to CAAACGTA, for which the binding signal (normalized occupancy) was 0.0729. As to ACTCAAAG, the binding signal (normalized occupancy) is 0.0726. To ATAGTCCC belongs 0.0796. The value for CACAACGG was 0.0717. The value for GCCTATCC was 0.0724; that for GAAGTTAA was 0.0758. For the sequence GATGTCAA, the binding signal (normalized occupancy) stood at 0.081. To CCCTCTTC belongs 0.0755; to GATCTAAA, 0.0756. The value for CTCGTATC was 0.0763; that for ATTTCTCG was 0.0768. Take CAACGGTC: the binding signal (normalized occupancy) amounted to 0.0687.

In the case of GGAGGACC, the binding signal (normalized occupancy) was 0.0705.

With AAAGTCTC, the binding signal (normalized occupancy) came to 0.0789. For GAAACTCA, the binding signal (normalized occupancy) is 0.0703. To AAAAATGG belongs 0.078. For the sequence CGATTACG, the binding signal (normalized occupancy) was found to be 0.08. Regarding TCATATGA, the binding signal (normalized occupancy) came to 0.0914. For the sequence AGGGCCGG, the binding signal (normalized occupancy) was 0.0676. To CGGAGCGC belongs 0.0673; to GTCTTAAA, 0.074; to ACAATACA, 0.0795. The value for GAATCGCC was 0.0695. On to ACCGGTCA, for which the binding signal (normalized occupancy) is 0.0718. To CTGATTCC belongs 0.0772; to ACTTTGAC, 0.0739.

As for AACGTTAC, the binding signal (normalized occupancy) amounted to 0.0772.

As to CAGGAATA, the binding signal (normalized occupancy) amounted to 0.078. The value for ACCTTTCC was 0.0757. On to CCACATCC, for which the binding signal (normalized occupancy) worked out at 0.0817. The value for GATGCTGA was 0.0746; that for CTCCTAAA was 0.07. As to CCGATTCA, the binding signal (normalized occupancy) is 0.0784. For AAACGGGG, the binding signal (normalized occupancy) amounted to 0.0729. The value for AAACGCAT was 0.0815; that for GCGTAGAC was 0.0676; that for AAACTGTT was 0.0708. GACAAGTC: the binding signal (normalized occupancy) worked out at 0.0723. CCTAATCC: the binding signal (normalized occupancy) was found to be 0.0828. Consider ACGCCGCC, for which the binding signal (normalized occupancy) was 0.074.

Turning to GAGGAGCC, the binding signal (normalized occupancy) amounted to 0.0696.

As for GAAACGAA, the binding signal (normalized occupancy) stood at 0.0769.

On to CAGGTAGC, for which the binding signal (normalized occupancy) came out at 0.0737. The value for AGGAGTTA was 0.0738; that for AGCATCGC was 0.07; that for ACGTCAGA was 0.0778. As to GTCGACTA, the binding signal (normalized occupancy) was 0.0792.

Turning to ACGAGACA, the binding signal (normalized occupancy) stood at 0.0856.

Turning to ATATTATA, the binding signal (normalized occupancy) was 0.0902. As for ATATAGCG, the binding signal (normalized occupancy) amounted to 0.084. To GCTGGCGA belongs 0.0689; to CGGGGGTA, 0.087; to CCACTATA, 0.0803. In the case of CACTGGAA, the binding signal (normalized occupancy) was 0.071. Turning to ACTACTGG, the binding signal (normalized occupancy) came to 0.0746. Regarding TGAGAGCA, the binding signal (normalized occupancy) was determined as 0.0753.

Consider ACCTCGCG, for which the binding signal (normalized occupancy) came out at 0.0814. The value for CACCCTTC was 0.0755. Take TAAACCCA: the binding signal (normalized occupancy) was determined as 0.0765. With CTAAGGAA, the binding signal (normalized occupancy) amounted to 0.0741. To GTCCTTCA belongs 0.078; to ATAAGCAA, 0.0779. On to TAGGCGAA, for which the binding signal (normalized occupancy) came to 0.0744. As for CCCACACA, the binding signal (normalized occupancy) was 0.0838.

For the sequence ACGTATGA, the binding signal (normalized occupancy) is 0.0837.

On to AATGGAGA, for which the binding signal (normalized occupancy) was 0.0798. The value for CAAAGATC was 0.0721; that for CACCGCAA was 0.0705. The value for GAACCACA was 0.0787; that for ACAGAGCC was 0.0731; that for GGTGTGAC was 0.0842. Take GAGGTGTA: the binding signal (normalized occupancy) worked out at 0.0793. To GCGCGGCC belongs 0.073.
